Experimental data reported in the supplement of paper PMC3334620.
Over roughly 33,000 sequences, “E-score (-0.5 to 0.5)” has its median near -0.054; the highest 2% begin near 0.35. The list shows a part of the results.

These sequences were tested against T1, Stb5 (UniProt P38699) (assay: PBM E-score (8-mer binding enrichment) (E-score (-0.5 to 0.5)); higher = stronger / more preferred TF binding; most listed sequences are background and not binding sites). Details: protein concentration: 200 nM; construct: GST-full length.
T1 sequence: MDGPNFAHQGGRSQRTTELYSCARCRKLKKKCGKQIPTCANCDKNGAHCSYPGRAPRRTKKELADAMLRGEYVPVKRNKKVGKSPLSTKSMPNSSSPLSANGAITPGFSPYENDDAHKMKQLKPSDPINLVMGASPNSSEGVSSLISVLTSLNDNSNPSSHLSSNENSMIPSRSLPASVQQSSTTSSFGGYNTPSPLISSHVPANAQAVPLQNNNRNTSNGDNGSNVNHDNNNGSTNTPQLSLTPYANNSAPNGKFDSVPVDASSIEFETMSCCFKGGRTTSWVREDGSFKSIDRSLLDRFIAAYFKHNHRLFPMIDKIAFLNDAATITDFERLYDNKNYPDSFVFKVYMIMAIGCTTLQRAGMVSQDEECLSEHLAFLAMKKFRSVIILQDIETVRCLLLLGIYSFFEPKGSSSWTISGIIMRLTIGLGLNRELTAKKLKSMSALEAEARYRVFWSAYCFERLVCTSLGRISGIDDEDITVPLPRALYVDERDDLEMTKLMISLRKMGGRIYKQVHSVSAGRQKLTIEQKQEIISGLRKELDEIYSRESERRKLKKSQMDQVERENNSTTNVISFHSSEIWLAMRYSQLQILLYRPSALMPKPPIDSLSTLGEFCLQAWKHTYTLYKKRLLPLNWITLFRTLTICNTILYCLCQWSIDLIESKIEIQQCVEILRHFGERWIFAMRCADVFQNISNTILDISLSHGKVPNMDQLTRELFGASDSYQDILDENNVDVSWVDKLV
How it was run: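 PURExpress in vitro transcription/translation supplied GST-tagged yeast transcription factors, either full-length or DNA-binding domain. Applied at about 100-200 nM to universal all-10-mer Agilent arrays double-stranded by primer extension, the bound protein was detected with fluorescent anti-GST. E-scores, modified Wilcoxon-Mann-Whitney statistics, were given by the Universal PBM Analysis Suite to ungapped eight-base words pooled with their reverse complements after masliner normalisation.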

Going from CTTGCGTC to TAAAAGGA, the “PBM E-score” value falls from -0.109 to -0.149.

Going from GGTAATCA to AGTTTACA, the “PBM E-score” value falls from 0.216 to 0.00132.

First: AGCTACAG
Second: AAATCCAT
The “PBM E-score” value of the first is lower: -0.215 for the first, -0.0752 for the second.

Compared with ATGTGAAT, CCAAGCGC is higher in “PBM E-score” value: -0.138 for the first, 0.129 for the second.

Going from AAAGAAGC to CCTCCTTC, the “PBM E-score” value falls from 0.0555 to -0.213.

Going from ACAGCGCA to ATACGGAT, the “PBM E-score” value rises from 0.118 to 0.174.

Going from ATCCGGCG to AAGATGTA, the “PBM E-score” value falls from 0.298 to -0.243.

Going from CATAATTA to CTCCGAGC, the “PBM E-score” value rises from -0.125 to 0.102.

Going from ACGGGTTC to ACCCTAAT, the “PBM E-score” value falls from 0.0737 to -0.303.

Compared with GGCTCTAC, TAAGACAA is lower in “PBM E-score” value: 0.116 for the first, 0.0611 for the second.

Going from GCAACCAA to CTTCCCAC, the “PBM E-score” value rises from -0.0357 to -0.0125.

Compared with ATCGACGG, TCAACGCA is lower in “PBM E-score” value: 0.292 for the first, -0.189 for the second.

Compared with GACCCTCC, AGAACTAA is higher in “PBM E-score” value: -0.006 for the first, 0.0894 for the second.

First: GGAACACC
Second: GACGGTGA
The “PBM E-score” value of the first is lower: 0.14 for the first, 0.325 for the second.

First: CCATTCGA
Second: CGTAGAGC
The “PBM E-score” value of the first is higher: -0.0555 for the first, -0.0725 for the second.

Going from CGGACACC to TAGTCTGA, the “PBM E-score” value falls from 0.155 to -0.232.

First: AGCGGAGC
Second: GGGCGTTA
The “PBM E-score” value of the first is higher: 0.31 for the first, 0.0794 for the second.

First: GTCCGACA
Second: GGCAAATA
The “PBM E-score” value of the first is higher: 0.403 for the first, 0.16 for the second.

Compared with CATCGGGA, ACACCGAC is higher in “PBM E-score” value: 0.261 for the first, 0.466 for the second.

First: ATGATTTA
Second: GTCCCATA
The “PBM E-score” value of the first is lower: -0.148 for the first, -0.0984 for the second.

First: CAGGAGGG
Second: CCGCCGCA
The “PBM E-score” value of the first is lower: -0.267 for the first, 0.301 for the second.

First: CGTCCACA
Second: CTCTCATC
The “PBM E-score” value of the first is higher: -0.101 for the first, -0.23 for the second.

First: CCCGGATA
Second: CGGATCAA
The “PBM E-score” value of the first is lower: 0.113 for the first, 0.139 for the second.

First: GTAATATA
Second: AACCTTCT
The “PBM E-score” value of the first is higher: 0.141 for the first, -0.165 for the second.

First: CGGGCACG
Second: ACTGGGCA
The “PBM E-score” value of the first is higher: 0.0792 for the first, -0.176 for the second.

First: ACGTCGCA
Second: GTATGCTA
The “PBM E-score” value of the first is lower: -0.182 for the first, 0.0865 for the second.

Compared with CCGCTAGG, CACCACAA is lower in “PBM E-score” value: 0.318 for the first, -0.0283 for the second.

Going from ACAAACCT to AATTTCAA, the “PBM E-score” value rises from -0.153 to -0.0884.

First: CTCGTAAC
Second: GTAAGAAC
The “PBM E-score” value of the first is lower: 0.0106 for the first, 0.0951 for the second.

First: TATCACGA
Second: ATATAAGG
The “PBM E-score” value of the first is lower: -0.177 for the first, 0.146 for the second.

First: CCATCAGG
Second: GGGCTGAA
The “PBM E-score” value of the first is lower: -0.0653 for the first, 0.0986 for the second.

First: ATCGATTC
Second: CGTTGCCA
The “PBM E-score” value of the first is lower: -0.187 for the first, -0.0921 for the second.

First: CACACACG
Second: AGAGATAA
The “PBM E-score” value of the first is higher: 0.162 for the first, -0.0777 for the second.

First: AGTTTTTC
Second: CGTGGACC
The “PBM E-score” value of the first is lower: -0.00974 for the first, 0.136 for the second.

First: AACGCAGA
Second: ATCGGCTG
The “PBM E-score” value of the first is lower: -0.102 for the first, -0.016 for the second.

First: GTGTCCCA
Second: AGGTCGAG
The “PBM E-score” value of the first is higher: 0.0445 for the first, -0.275 for the second.

First: CAGCGAAC
Second: GGAGGCAA
The “PBM E-score” value of the first is lower: -0.106 for the first, 0.128 for the second.

First: GCGCAATA
Second: ATCAGGGG
The “PBM E-score” value of the first is higher: 0.0679 for the first, -0.316 for the second.

Compared with AGAAGGGC, GGCACATA is higher in “PBM E-score” value: -0.0504 for the first, 0.0318 for the second.

First: CCGGGCGA
Second: GCATAATA
The “PBM E-score” value of the first is higher: 0.0763 for the first, 0.0352 for the second.

First: AGGACGGA
Second: AAGCAGGG
The “PBM E-score” value of the first is higher: 0.168 for the first, -0.152 for the second.

Compared with AAACCGAG, ATGACACG is higher in “PBM E-score” value: -0.0377 for the first, 0.0248 for the second.

Going from AGCGTCGC to ACAATTTG, the “PBM E-score” value falls from -0.0135 to -0.0255.

Compared with AAACTGTA, GGTGGGGA is lower in “PBM E-score” value: -0.0312 for the first, -0.126 for the second.

Compared with CACTAAAC, AAACGGCG is higher in “PBM E-score” value: 0.0275 for the first, 0.236 for the second.

Going from AGTGTAAT to AAATATAA, the “PBM E-score” value rises from -0.107 to 0.232.

Going from CCACGAGG to CTGTCCAC, the “PBM E-score” value rises from -0.223 to -0.102.

Going from ACTACAGC to GCCAGCAC, the “PBM E-score” value falls from 0.037 to -0.126.

First: GTTAGGAA
Second: TCCGGAAA
The “PBM E-score” value of the first is lower: 0.0588 for the first, 0.119 for the second.

Compared with TCGACGAA, CGCACCCG is higher in “PBM E-score” value: -0.306 for the first, 0.113 for the second.

First: CACATGAG
Second: ATGCCCGC
The “PBM E-score” value of the first is lower: -0.216 for the first, 0.366 for the second.

Going from TAGACGCA to ACTTAAAC, the “PBM E-score” value rises from -0.14 to -0.0316.

First: CAACTACC
Second: CGAGCGCA
The “PBM E-score” value of the first is lower: 0.0237 for the first, 0.11 for the second.

First: AGCGAGGA
Second: CCGGGCGC
The “PBM E-score” value of the first is lower: -0.0136 for the first, 0.259 for the second.

Going from CATGAAAG to CATACGGA, the “PBM E-score” value rises from -0.0152 to 0.224.

Compared with AGGGCAAA, ATGTGTTC is lower in “PBM E-score” value: -0.105 for the first, -0.157 for the second.

First: GCTGCAAC
Second: GCGCAAAC
The “PBM E-score” value of the first is higher: -0.0572 for the first, -0.107 for the second.

Going from AGACGCAA to AAATAACG, the “PBM E-score” value rises from -0.048 to 0.154.

Compared with GCAGAGGC, CGGGCGAG is lower in “PBM E-score” value: -0.0538 for the first, -0.156 for the second.

First: ATCGCCTG
Second: GGGCAGAA
The “PBM E-score” value of the first is lower: -0.215 for the first, -0.0851 for the second.

First: GGATTCTA
Second: ATTGAGAC
The “PBM E-score” value of the first is higher: 0.119 for the first, -0.0695 for the second.

Compared with CACTTTAG, GGATGTAA is higher in “PBM E-score” value: -0.063 for the first, 0.272 for the second.

Going from ATCTGTTC to CTCGTAGC, the “PBM E-score” value rises from -0.189 to -0.0277.

Compared with AGCAGATC, ATATTTGC is higher in “PBM E-score” value: -0.35 for the first, 0.0728 for the second.

First: ATCGCAGG
Second: GAGCGTGC
The “PBM E-score” value of the first is lower: -0.234 for the first, -0.0824 for the second.

Compared with CGTCTCCC, AACACGCA is lower in “PBM E-score” value: 0.0115 for the first, -0.0648 for the second.

First: AGTACAAT
Second: GCATGCGC
The “PBM E-score” value of the first is higher: -0.0302 for the first, -0.0361 for the second.

Going from AGACTTGA to TGTTGGAA, the “PBM E-score” value rises from -0.246 to -0.0526.

Compared with CATGCCCC, GGCTCAAC is lower in “PBM E-score” value: 0.0218 for the first, -0.142 for the second.

Going from TGTGCAAA to CATATCTA, the “PBM E-score” value rises from -0.143 to -0.03.

Going from CCGAAATC to CCCTTACG, the “PBM E-score” value falls from 0.152 to -0.0846.

First: CGTCTTAC
Second: AGCGGGTA
The “PBM E-score” value of the first is lower: -0.183 for the first, 0.0916 for the second.

First: CAACAACC
Second: CCTCTGAC
The “PBM E-score” value of the first is lower: -0.0208 for the first, -0.00317 for the second.

Compared with AAGATCAT, CTAAGTTA is lower in “PBM E-score” value: -0.0362 for the first, -0.142 for the second.

First: CGAGCCAC
Second: TCCTCAGA
The “PBM E-score” value of the first is lower: -0.14 for the first, -0.0929 for the second.

Compared with CGCGCAAG, ACATTTTG is lower in “PBM E-score” value: 0.0272 for the first, -0.253 for the second.

First: ACAGAAGA
Second: GTACGCTA
The “PBM E-score” value of the first is lower: -0.126 for the first, -0.033 for the second.

First: CCACAAAG
Second: CCGAATAA
The “PBM E-score” value of the first is lower: -0.0447 for the first, 0.103 for the second.

Compared with ACCCACAT, ACGGTGTG is higher in “PBM E-score” value: 0.111 for the first, 0.288 for the second.

Going from AATCTTCT to AGAATCCG, the “PBM E-score” value rises from 0.0418 to 0.208.

First: TCGGGAGA
Second: ATGCCCCA
The “PBM E-score” value of the first is higher: -0.0198 for the first, -0.147 for the second.

Going from CGACTAGC to AGACACGG, the “PBM E-score” value falls from 0.189 to 0.163.

First: CTGTCTTA
Second: CAAGGAGG
The “PBM E-score” value of the first is higher: 0.0377 for the first, -0.182 for the second.

Going from AGCCGAGA to GGCACCCC, the “PBM E-score” value rises from -0.0727 to 0.00197.

Going from CTGCGAAG to AACAGAGC, the “PBM E-score” value rises from -0.308 to -0.128.

Compared with CCGCTGCA, ATCAGGAA is lower in “PBM E-score” value: 0.201 for the first, -0.203 for the second.
